# Experimental data taken from PubChem BioAssay AID488969 (Vanderbilt High Throughput Screening Facility, 2010).
# Whole data set: some 110,000 compounds, median “z-score” near -0.1, cut for the highest 2% near 2. This is one part of the list.
# Biological target: Metabotropic glutamate receptor 8 (Rattus norvegicus) (UniProt P70579)
# Test: rat mGluR8 modulators via GIRK flux, primary screen, cell-based, thallium flux, HTS (AID 488969)
# Conditions: HEK293 rat mGluR8, GIRK (G protein-gated inwardly rectifying potassium channel) thallium flux, FluoZin2; at 10 µM; stronger effect = higher value; submaximal glutamate (EC20) added with thallium
# Chain of UniProt P70579 (P70579 whole entry, looked up): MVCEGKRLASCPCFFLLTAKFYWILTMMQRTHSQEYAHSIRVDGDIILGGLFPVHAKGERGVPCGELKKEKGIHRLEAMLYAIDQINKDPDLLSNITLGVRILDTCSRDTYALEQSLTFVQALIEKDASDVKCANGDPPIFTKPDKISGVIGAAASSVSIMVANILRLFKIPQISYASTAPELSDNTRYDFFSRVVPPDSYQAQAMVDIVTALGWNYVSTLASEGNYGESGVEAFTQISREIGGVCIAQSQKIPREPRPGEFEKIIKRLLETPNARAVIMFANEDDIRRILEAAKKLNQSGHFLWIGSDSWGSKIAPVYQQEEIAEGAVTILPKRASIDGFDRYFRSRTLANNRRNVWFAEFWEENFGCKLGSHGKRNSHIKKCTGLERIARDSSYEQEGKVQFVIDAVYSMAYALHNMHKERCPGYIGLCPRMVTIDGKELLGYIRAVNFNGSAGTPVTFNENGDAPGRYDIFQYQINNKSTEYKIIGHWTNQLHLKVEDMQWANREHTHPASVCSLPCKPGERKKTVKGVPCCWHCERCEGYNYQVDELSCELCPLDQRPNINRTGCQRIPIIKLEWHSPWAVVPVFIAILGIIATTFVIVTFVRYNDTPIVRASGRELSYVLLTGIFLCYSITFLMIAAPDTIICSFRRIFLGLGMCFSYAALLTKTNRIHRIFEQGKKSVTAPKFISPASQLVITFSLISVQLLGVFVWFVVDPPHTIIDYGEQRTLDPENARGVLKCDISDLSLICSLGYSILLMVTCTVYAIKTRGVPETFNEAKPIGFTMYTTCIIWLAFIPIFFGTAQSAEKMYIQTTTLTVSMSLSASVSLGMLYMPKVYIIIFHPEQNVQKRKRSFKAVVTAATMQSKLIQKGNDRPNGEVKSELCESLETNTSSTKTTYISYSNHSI
row,Structure (SMILES),z-score
1,COc1ccc(C2N(c3ccccc3)C(=S)N3CCCN23)cc1 (stereo unspecified),-0.394
2,O=C(Nc1nc(COc2ccccc2)cs1)C12CC3CC(CC(C3)C1)C2,0.035
3,COc1ccc(N/C(=N/c2nc(C)cc(C)n2)NC(=O)Nc2ccc(Cl)c(Cl)c2)c(OC)c1,-0.0467
4,CCCCC(CC)COC1(c2ccccc2)OC(=O)c2ccccc21 (stereo unspecified),0.744
5,Cc1ccc(C(=O)CSc2n[nH]c(-c3ccco3)n2)cc1C,0.0361
6,c1ccc(Cn2nnc(-c3ccccc3)n2)cc1,-0.379
7,O=C(Nc1cccc(Cl)c1)c1ccc(NCCCN2CCOCC2)c([N+](=O)[O-])c1,-0.0295
8,CCOC(=O)Cc1csc(NC(=O)CSc2ccc(Br)cc2)n1,-0.121
9,Cc1cc(C)nc(NC(N)=NC2CCCCC2)n1,0.228
10,CCn1nnnc1SCCSc1nnnn1CC,-0.12
11,O=C(CO/N=C/c1ccccc1Cl)N1CCCc2ccccc21,-0.544
12,COC(=O)c1c(O)c2c([nH]c1=O)CCCC2,-0.216
13,Cc1ccc2c(c1)C(=O)c1ccccc1CS2=O (stereo unspecified),-0.318
14,O=C(O)CCc1nn2c3ccccc3n(CC(=O)c3ccccc3)c2nc1=O,0.204
15,Cc1cc2c(c(=O)n1CCCn1ccnc1)C(c1ccco1)C(C#N)=C(N)O2 (stereo unspecified),-0.409
16,COC(=O)c1ccc(C)c(NC(=O)C2COc3ccccc3O2)c1 (stereo unspecified),0.298
17,CCCC(=O)Nc1cc(=O)[nH]c2ncnn12,-0.498
18,Cc1cn(C2CC3OCC3O2)c(=O)[nH]c1=O (stereo unspecified),0.237
19,COC(=O)CC(NS(=O)(=O)c1cccs1)c1cccc2ccccc12 (stereo unspecified),-0.0688
20,O=C(NCc1nnc(SCc2ccccc2)n1-c1ccccc1)C12CC3CC(CC(C3)C1)C2,-0.441
21,COc1cccc(Nc2n[nH]c(=S)s2)c1,0.629
22,CCc1ccc(Oc2coc3cc(OCC(=O)Nc4cc(C)ccc4C)ccc3c2=O)cc1,0.0196
23,CCOc1cc(CNCCO)cc(Br)c1OCc1cccs1,0.398

row,Structure (SMILES),z-score
1,N#Cc1c(Sc2ncc(C(F)(F)F)cc2Cl)nsc1C/C=N\OCc1c(F)cccc1Cl,0.21
2,O=C(CNC(=O)c1ccccc1F)NC1CC1,1.03
3,O=S1(=O)CC(NCc2ccccc2)C(Nc2ccccc2)C1 (stereo unspecified),2.43
4,CN(Cc1ccccc1)C(=O)CC(c1ccccc1)c1cc(Cl)ccc1O (stereo unspecified),-0.0311
5,CCCCN1CN=C(Nc2nc3ccccc3o2)NC1,-0.0247
6,O=C(Nc1ccc2c(c1)OCO2)C(c1ccccc1)N1CCCCC1 (stereo unspecified),0.343
7,O=C(NNC(=O)c1ccc(SCC2CCCO2)c([N+](=O)[O-])c1)c1ccc(F)cc1 (stereo unspecified),-0.137
8,CCC1=Nc2cc(C(=O)NCCCOC(C)C)ccc2Sc2ccccc21,-0.637
9,O=C(Nc1ccc(-n2ccnc2P(=O)(O)c2ccccc2)cc1)c1ccccc1Cl,0.472
10,Cc1ccc(C2CC(=O)NC(SCc3ccccc3)=C2C#N)o1 (stereo unspecified),-0.0432
11,Cn1c(COc2ccc(Cl)cc2)nnc1SCC(=O)Nc1ccc2c(c1)CCC2,-0.21
12,CCOP(=O)(OCC)c1nc(-c2cccc3ccccc23)oc1NCc1ccccc1,-0.00118
13,Cc1nc(Cl)c(C(=O)NC(=O)NCc2ccccc2)c(C)c1Cl,-0.0876
14,CC(=O)N1CCN(Cc2nc3cc(NC(=O)c4ccccc4)ccc3n2C)CC1,-0.376
15,C/C(=N\NC(=O)c1ccccn1)C12CC3CC(CC(C3)C1)C2,-0.4
16,COc1ccccc1NC(=O)C1CCCN(c2cc(C)nc3ncnn23)C1 (stereo unspecified),-0.278
17,C=CCn1c(SCC(=O)Nc2cccc3ccccc23)nc(O)c(CC)c1=O,0.276
18,CC(C)COc1ccc(C(=O)OCCN2CCOCC2)c(O)c1,-0.152
19,COCC(C)n1c(C)cc(C(=O)COC(=O)c2oc3ccccc3c2C)c1C (stereo unspecified),-0.927
20,Cc1ccnc(SCC(=O)Nc2oc(-c3ccccc3)c(-c3ccccc3)c2C#N)n1,-0.39
21,CC(=O)NC1CCN(C(=O)N2CCCC2)CC1,0.254
22,COc1ccccc1C(c1nnnn1C(C)(C)C)N1CCN(Cc2ccccc2)CC1 (stereo unspecified),0.798
23,Cc1ccc(-c2noc(CCC(=O)N(C)c3ccccc3C)n2)cc1,0.361

row,Structure (SMILES),z-score
1,CCn1cc(C2Nc3ccccc3C(=O)N2O)c(C)n1 (stereo unspecified),0.209
2,Cc1cc(OCCOc2cccc3cccnc23)c(C)cc1Cl,-0.0542
3,Cc1ccc(CNC(=O)c2cnccn2)cc1,-0.218
4,CC(=C/C(=O)O)/C=C/c1ccc([N+](=O)[O-])cc1,-0.0461
5,C=CCNC(=O)CSc1nnc(-c2ccccc2Cl)n1-c1c(C)n(C)n(-c2ccccc2)c1=O,0.999
6,Cc1ccc(CNC(=O)CN(Cc2ccccc2)S(C)(=O)=O)cc1,-0.457
7,CC(=O)Nc1cccc(-c2cnc3ccccc3n2)c1,-0.141
8,CC(C)c1ccc(O)c(NC(=O)c2cccnc2)c1,-1.43
9,CCOCCCNCc1cc(Br)ccc1OCc1ccccc1,0.116
10,COc1ccc2nc(NC(=O)CSc3nnnn3C3CCCCC3)sc2c1,-0.0705
11,CCOC(=O)/C(=C\c1ccc(Cl)cc1)c1nc2sc(C)c(C)c2c(=O)[nH]1,-0.0812
12,Cc1nc2c(-c3ccc(F)cc3)c(C)nn2c(C)c1CCC(=O)N1CCN(c2ccc(F)cc2)CC1,0.733
13,Cc1ccc(-c2nnn(CCC(=O)NC(C)(C)C)n2)cc1,-0.0528
14,CCOc1ccccc1Nc1nnc(SCC(=O)NC(=O)c2cccn2C)s1,-0.284
15,COc1ccc(CCNC(=O)c2oc3ccc(S(=O)(=O)N4CCOCC4)cc3c2C)cc1OC,-0.221
16,CCOC(=O)Nc1cc(=O)c2ccccc2o1,0.0608
17,NC(=O)c1cc2cc(Br)ccc2oc1=NCc1ccccc1,0.462
18,COc1ccc(O)c(/C=N/Nc2nc(Nc3ccccc3)nc(-n3nc(C)cc3C)n2)c1,-0.106
19,CCOc1ccc(C)cc1S(=O)(=O)Nc1cccnc1,-0.228
20,C[C@@]12CC(=O)NC1N(C(=O)c1ccccc1)C(c1ccccc1OC(=O)c1ccccc1)C2 (stereo partly specified),-0.261
21,O=C(NC(NC(=S)Nc1ccc(Cl)cc1)C(Cl)(Cl)Cl)c1ccco1 (stereo unspecified),0.844
22,COc1ccc(N2CCN(CC(=O)Nc3ccc(-n4cnnn4)cc3)CC2)cc1,1.05
23,Cc1ccc(CSc2nc3c(c(SCC(=O)O)n2)CCCC3)cc1,-0.276

row,Structure (SMILES),z-score
1,Cc1nn(Cc2cccc(C(=O)Nc3ccn(Cc4ccccc4)n3)c2)c(C)c1[N+](=O)[O-],-0.197
2,CCOC(=O)C1CCCN(Cc2nc(N)nc(Nc3ccc(C)cc3)n2)C1 (stereo unspecified),-1.02
3,COC(=O)C(CC(C)C)NC(=O)c1ccc([N+](=O)[O-])cc1 (stereo unspecified),2.03
4,FC(F)(F)c1ccccc1NC(=S)N1CCN(c2ncccn2)CC1,-0.0651
5,COC(=O)c1ccc(N2Cc3ccccc3/C2=N\C(=O)Nc2ccccc2)cc1,0.479
6,Cc1c(NC(=O)CCSc2ccc(Cl)cc2)c(=O)n(-c2ccccc2)n1C,0.0518
7,C/C(=N\NC(=O)C1CC1c1ccccc1)c1cccs1 (stereo unspecified),-0.366
8,O=C(O)C1C2CCC(C2)C1C(=O)NCc1ccco1 (stereo unspecified),-0.268
9,CSc1nsc(SCc2cnc(C)nc2N)n1,-0.0122
10,COc1cc(NC(=O)c2cc3ccccc3o2)c(OC)cc1Br,-0.191
11,O=C(c1ccc(CS(=O)(=O)c2ccc(Br)cc2)o1)N1CCN(c2ccccn2)CC1,-0.169
12,Clc1ccc(-c2nnc3sc(Cc4cccs4)nn23)c(Cl)c1,-0.542
13,Cc1cccc(C(CC(=O)N2CCCC2)c2ccccc2)c1O (stereo unspecified),-0.619
14,CSc1ncc(Cl)c(C(=O)Nc2nnc(SC)s2)n1,-0.194
15,COc1cc2c(cc1NC(=O)COC(=O)[C@@H](NC(=O)c1ccccc1F)C(C)C)oc1ccccc12,-0.258
16,C/C(=N\NC(=O)c1c(Cl)c(C)nn1C)c1cccc(NC(=O)COc2ccc(Cl)cc2)c1,-0.136
17,CC(=O)N(CC1CCCO1)c1nnc(-c2ccccn2)s1 (stereo unspecified),-0.016
18,O=C1C2CC=CCC2C(=O)N1c1cccc(OS(=O)(=O)c2ccc3ccccc3c2)c1 (stereo unspecified),0.0335
19,Cc1ccc(-n2c(C)cc(C(=O)COC(=O)c3c(C)noc3C)c2C)cc1,-1.59
20,CCCc1nc2sc3c(c2c(=O)n1NC(=O)CCCl)CCCC3,-0.0232
21,Cc1nc(/C=[N+](\[O-])C(C)(C)/C=N/O)n(O)c1C,0.192
22,CCN(c1ccccc1)S(=O)(=O)c1ccc2[nH]cc(C(=O)N3CCOCC3)c(=O)c2c1,0.567
23,CCCOn1c(OCC(C)C)nc2ccccc2c1=O,-0.497

row,Structure (SMILES),z-score
1,O=C(Nc1cccc2c1[nH]c1ccccc12)C(F)(F)F,0.34
2,COC(=O)C(C)n1cnc2c(nnn2Cc2ccc(Cl)cc2)c1=O (stereo unspecified),-0.176
3,COc1ccc(C)cc1S(=O)(=O)N1CCC(C(=O)N2CCN(C)CC2)CC1,-0.102
4,O=C(/C=C/c1ccccc1)N1CCN(c2ccc([N+](=O)[O-])c(N3CCOCC3)c2)CC1,-0.431
5,COc1ccccc1NC(=O)CN(C)S(=O)(=O)c1ccc(F)cc1,-0.0551
6,CNC(=O)CN1C(=O)c2cccc3cccc1c23,0.394
7,COc1ccc(-c2cc(C(F)(F)F)nc(NC3CCCC3)n2)cc1OC,0.0196
8,CCC1=Nc2ccccc2NC2=C1C(=O)CCC2,0.743
9,O=C(Cn1c(SCC(=O)N2CCc3ccccc3C2)nc2ccccc21)NC1CCCC1,-0.106
10,O=C(NNS(=O)(=O)c1ccccc1)c1cc2cc3ccccc3nc2s1,-0.185
11,Cn1c(=O)n(CC(=O)NCc2cccnc2)c2ccccc21,0.0198
12,Cc1ccc(C)c(NC(=O)CSc2ccc(-c3ccco3)nn2)c1,-0.235
13,Cn1nc(-c2ccc(Cl)cc2)c2cc(C(=O)N3CCOCC3)sc21,-0.302
14,O=C(CN1CCOCC1)c1c[nH]c2ccccc12,-0.0856
15,Cc1ncc(S(=O)(=O)c2ccccc2)c(-c2ccc(Cl)cc2Cl)n1,-0.306
16,CCOC(=O)C(Cc1cc(C(C)=O)ccc1OCC)C(=O)OCC,-0.173
17,COc1ccc(C(=O)c2c[nH]c(C(=O)NCC3CCCO3)c2)cc1 (stereo unspecified),-0.0371
18,CCOc1ccccc1NC(=O)C(OC(=O)c1ccc(N(C)C)cc1)c1ccccc1 (stereo unspecified),0.159
19,COc1cccc(OC)c1OCc1cc(C2C3CCCC=C3C(C#N)=C(N)C2(C#N)C#N)c(C)cc1C (stereo unspecified),0.121
